# Results taken from PubChem BioAssay AID488969 (Vanderbilt High Throughput Screening Facility, 2010).
# In all, about 110,000 compounds were measured (“z-score”: median about -0.1, highest 2% from about 2 on). This is one part of the list.
# Target: Metabotropic glutamate receptor 8 (Rattus norvegicus) (UniProt P70579)
# Experiment: rat mGluR8 modulators via GIRK flux, primary screen, cell-based, thallium flux, HTS (AID 488969)
# Conditions: HEK293 rat mGluR8, GIRK (G protein-gated inwardly rectifying potassium channel) thallium flux, FluoZin2; at 10 µM; stronger effect = higher value; submaximal glutamate (EC20) added with thallium
# Chain of UniProt P70579 (P70579 whole entry, looked up): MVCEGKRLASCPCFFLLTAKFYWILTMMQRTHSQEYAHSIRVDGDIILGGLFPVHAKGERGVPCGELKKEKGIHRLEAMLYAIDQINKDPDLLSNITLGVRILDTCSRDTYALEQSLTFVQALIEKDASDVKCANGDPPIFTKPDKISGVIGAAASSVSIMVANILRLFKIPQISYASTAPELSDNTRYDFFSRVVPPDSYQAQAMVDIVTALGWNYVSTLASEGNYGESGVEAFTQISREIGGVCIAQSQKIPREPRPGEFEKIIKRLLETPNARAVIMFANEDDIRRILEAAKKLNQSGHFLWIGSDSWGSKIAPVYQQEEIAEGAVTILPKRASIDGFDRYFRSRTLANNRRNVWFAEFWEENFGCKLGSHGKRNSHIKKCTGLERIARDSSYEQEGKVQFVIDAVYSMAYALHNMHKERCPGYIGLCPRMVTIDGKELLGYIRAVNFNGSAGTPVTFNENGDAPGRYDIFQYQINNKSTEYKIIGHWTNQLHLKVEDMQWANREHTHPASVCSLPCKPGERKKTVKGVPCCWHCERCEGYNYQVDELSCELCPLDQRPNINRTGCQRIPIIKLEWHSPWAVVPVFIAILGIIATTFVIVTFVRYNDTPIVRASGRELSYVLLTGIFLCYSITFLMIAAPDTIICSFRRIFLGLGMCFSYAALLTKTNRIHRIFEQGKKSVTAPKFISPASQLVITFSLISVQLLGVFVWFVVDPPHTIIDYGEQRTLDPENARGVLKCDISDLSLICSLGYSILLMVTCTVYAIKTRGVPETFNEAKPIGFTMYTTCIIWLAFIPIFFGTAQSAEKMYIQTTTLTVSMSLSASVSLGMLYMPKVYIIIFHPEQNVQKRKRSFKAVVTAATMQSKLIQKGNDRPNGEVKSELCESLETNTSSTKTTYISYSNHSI
row,SMILES,z-score
1,CCc1ccc(CNC(=O)C2CC(=O)N(CCc3ccc(C)cc3)C2)cc1 (stereo not drawn),-0.28
2,OCCNCc1cc(Br)ccc1OCc1ccccc1,1.14
3,CCOC(=O)CN(C(=O)CSc1nnc2c(n1)[nH]c1ccc(F)cc12)c1ccccc1,-0.812
4,COc1cc2c(C(=O)NC3CCCCCC3)cn(C)c(=O)c2cc1OC,-0.276
5,CCOC(=O)c1cc(-c2ccccc2)sc1NC(=O)CN1C(=O)NC(CC)(c2ccccc2)C1=O (stereo not drawn),0.0631
6,O=C(CSc1nnc2ccccn12)Nc1ccccc1C(=O)NC1CC1,-0.0231
7,O=C(CSc1nnc2c(n1)[nH]c1ccccc12)OCc1ccccc1,-0.438
8,O=C(c1cccc(C(=O)N2CCN(c3ccccc3F)CC2)n1)N1CCN(c2ccccc2F)CC1,-0.333
9,O=C(Nc1nnc(CCc2ccccc2)s1)c1cccs1,-0.218
10,Cc1ccc(NCc2nnc(SC(C)C(=O)N/N=C/c3ccc(C)o3)n2-c2ccccc2)cc1 (stereo not drawn),-0.315
11,COc1cc(S(=O)(=O)NCC2OCCc3ccccc32)ccc1-n1cnnn1 (stereo not drawn),-0.22
12,O=C1CC(N2CCOCC2)C(=O)N1CCc1ccccc1 (stereo not drawn),0.298
13,O=C(COC(=O)c1ccc2c(c1)OCCO2)NCc1ccccc1,0.291
14,CCOC(=O)C1CCCN(C(=O)c2cc3c(=O)n(C)c4ccccc4c3n2C)C1 (stereo not drawn),-0.988
15,COc1cccc(-c2nnn(CC(C)=O)n2)c1,0.000718
16,Cc1ccsc1/C=N/NS(=O)(=O)c1ccc([N+](=O)[O-])cc1,0.929
17,Cc1nn(Cc2ccc(Cl)cc2)c(C)c1NC(=O)c1ccc([N+](=O)[O-])cc1,-0.108
18,Cn1c(C(=O)N2CCCCCC2)cc2c(=O)n(C)c3ccccc3c21,-0.505
19,CCn1c(C)c(C)c2cc(C(=O)Nc3cccc(Cl)c3)ccc21,-0.0312
20,CC(=O)Oc1ccc(-c2cccc(C(=O)Oc3ccccc3)c2)cc1,-0.288
21,CCOC(=O)Nc1nnc(-c2cccc(OC)c2)s1,0.775
22,O=C(O)COc1ccc(/C=N/NC(=O)C2CCCN2S(=O)(=O)c2ccc(Cl)cc2)cc1 (stereo not drawn),-0.0737
23,CCOc1cc(/C=N/NC(=O)c2nn(C)cc2Br)ccc1OCc1ccccc1,-0.143

row,SMILES,z-score
1,CCCCNC(=O)C1CCN(Cc2ccc(OCc3ccccc3)cc2)CC1,0.479
2,O=C1CN(S(=O)(=O)c2ccc(Cl)cc2)CC(=O)N1CCc1ccccc1,0.517
3,CCCCOC(=O)Nc1ccc(N2CCCCC2)cc1,-0.595
4,COc1ccc(C2(C(=O)N3CCOCC3)CCCC2)cc1,-0.0732
5,COC(=O)c1c(C)[nH]c(C(=O)OCC(=O)N2c3ccccc3NC(=O)C2(C)C)c1C,-0.238
6,O=C(c1ccco1)N1CCN(C(=O)c2cnn3c(C(F)(F)F)cc(-c4cccs4)nc23)CC1,-0.583
7,Cc1ccc(S(=O)(=O)c2c(N)n(CCCO)c3nc4ccccc4nc23)cc1,-0.819
8,CCn1cc(/C=C(/C#N)S(=O)(=O)c2ccccc2)cn1,0.178
9,COc1ccc(N/C(=N\c2nc(C)cc(C)n2)NC(=O)C(C)C)cc1OC,-1.06
10,CCN(CC)CC#CC(C)OCOCC#CCOC (stereo not drawn),0.431
11,COCc1cc(=O)[nH]c2cc(NC(=O)C(C)(C)CCl)c(C)cc12,-0.185
12,COc1ccc(CCNc2cc(N3CCN(C(=O)c4ccccc4F)CC3)ccc2[N+](=O)[O-])cc1OC,-0.266
13,Cc1cccc(N(CC(=O)N=Nc2c(O)[nH]c3ccccc23)S(C)(=O)=O)c1C,-0.693
14,Cc1ccc(NC(=O)COc2ccc3oc4c(c3c2)CCCC4)nc1,-0.197
15,CC(NC(=O)COc1ccc(-c2nnco2)cc1)c1ccc(Cl)cc1Cl (stereo not drawn),-0.498
16,Cc1ccc(-c2csc(=S)n2CC(=O)OCC(=O)NCc2ccco2)cc1,-0.577
17,O=C(CSCc1ccc(Cl)cc1)Nc1ccc(S(=O)(=O)N2CCCCCC2)cc1,0.232
18,CCOC(=O)CSC1=C(C#N)C(c2ccc(C)s2)CC(=O)N1 (stereo not drawn),-0.49
19,CC(=O)c1cc(C#N)c(Oc2cc(C)cc(C)c2)nc1C,-0.104
20,CCc1c(C(=O)Nc2ncn(Cc3cccc(C)c3)n2)csc1C,-0.529
21,COC(=O)N1CN(C(=O)OC)CN(C(=O)OC)C1,-0.0254
22,O=C(NCCC(=O)N1CCN(c2ncccn2)CC1)c1ccccc1,-0.091
23,Cc1cc(NC(=O)CSc2nc(C(C)C)nc3sc4c(c23)CCC(C)C4)no1 (stereo not drawn),0.131

row,SMILES,z-score
1,C=CCOc1nc(N2CCCC2)nc(N2CCCC2)n1,-0.722
2,O=C(O)C1CCCCC1C(=O)Nc1nccs1 (stereo not drawn),0.000428
3,C=CCNC(=S)Nc1cccc2ccccc12,0.00401
4,COC(=O)CSc1nc2c(c(C3CC=CCC3)c1C#N)CCC2 (stereo not drawn),0.602
5,O=C(O)Cn1nc(-c2ccccc2)c2ccccc2c1=O,0.102
6,COc1ccc(/C=c2\sc3nc(-c4ccccc4)c(-c4ccccc4)n3c2=O)cc1OC,-0.322
7,Nc1nonc1C(=O)NCCNCc1ccccc1OCc1ccccc1F,1.61
8,COc1ccc(C2=NO[C@@H]3[C@@H]4C[C@@H]([C@H]5C(=O)N(c6ccc7c(c6)OCO7)C(=O)[C@@H]45)[C@H]23)cc1OC,-0.0611
9,CCn1c2c(c3cc(C(=O)O)ccc31)CCCC2=O,0.843
10,O=C(COC(=O)Cc1cn2ccsc2n1)NC12CC3CC(CC(C3)C1)C2,0.435
11,Cc1ccc(S(=O)(=O)N2CCN(c3nc4ccccc4nc3-n3nc(C)cc3C)CC2)cc1,-0.206
12,COc1ccc(C(=O)N/C(=C\c2ccc3c(c2)OCO3)C(=O)NCCc2nc3ccccc3[nH]2)cc1,-0.399
13,Cc1cc(Cl)ccc1OCCCC(=O)NCC1CCCO1 (stereo not drawn),-0.79
14,Cc1cc[n+](-c2nc3ccccc3nc2[N-]S(=O)(=O)c2cccs2)cc1C,-0.0185
15,Cc1nc(-c2ccccn2)sc1C(=O)Nc1ccc(F)cc1,-0.239
16,O=C(CCCOc1ccccc1)NCC1CCCO1 (stereo not drawn),0.226
17,CN(Cc1ccccc1)c1nc2c(c(=O)[nH]c(=O)n2C)n1CCSc1ncccn1,0.672
18,COC(=O)c1ccccc1NC(=S)NC(NC(=O)COc1ccccc1)C(Cl)(Cl)Cl (stereo not drawn),-0.203
19,CCN(CC)S(=O)(=O)c1ccc(N2CCCCC2)c(NC(=O)/C=C/c2cc(OC)c(OC)c(OC)c2)c1,-0.288
20,COCCn1nnnc1C(c1cc2cccc(C)c2[nH]c1=O)N1CCN(c2ccccc2F)CC1 (stereo not drawn),0.391
21,O=C(COc1ccc(Br)cc1)N1CCC(c2ccccc2)C1 (stereo not drawn),-0.638
22,Cc1[nH]c2ccc(-c3nnc(SCC(=O)c4ccc(F)cc4)o3)cc2c1C,-0.794
